Laboratory results as given in PubChem BioAssay AID1346428 (National Center for Advancing Translational Sciences (NCATS), 2018).
“And” between values parts separate entries of the source, which are not always exact repeats. Equal values may be shown once. Screen size: about 48,000 compounds; about 1,200 (2.5%) were called active. About 2% were inconclusive and are not listed.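 How the source made its calls: active means activation of at least 60% and not above a set upper limit (about 1 call in 100 departs from these limits); inconclusive means activation of 40% to 60%, or above that upper limit; inactive means activation under 40%.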 The list shows a part of the results.
Further: 0% is about no effect.

Each molecule was assayed against Probable G-protein coupled receptor 32 (Homo sapiens) (UniProt O75388) (assay: qHTS for Agonists of Human Resolvin D1 Receptor DRV1). Conditions: CHO-K1 GPR32 beta-arrestin PathHunter luminescence, 90 min; at 76.9 µM; stronger effect = higher value; zero percent set by DMSO-only wells.
UniProt O75388, sequence (O75388 whole entry, looked up, the tested form may be a part): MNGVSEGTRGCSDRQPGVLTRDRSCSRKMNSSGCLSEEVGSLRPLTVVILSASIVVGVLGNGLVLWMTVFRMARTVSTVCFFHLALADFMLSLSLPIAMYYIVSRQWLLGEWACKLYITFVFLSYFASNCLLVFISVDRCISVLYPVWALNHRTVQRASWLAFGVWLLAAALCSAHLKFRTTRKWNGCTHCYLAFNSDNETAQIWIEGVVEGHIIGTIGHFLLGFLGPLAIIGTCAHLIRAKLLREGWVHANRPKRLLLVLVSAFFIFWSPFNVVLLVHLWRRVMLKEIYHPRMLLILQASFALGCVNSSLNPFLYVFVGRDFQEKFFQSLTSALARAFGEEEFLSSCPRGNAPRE
In short: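 Agonism was scored by beta-Gal fragment complementation (chemiluminescent read, 1 h detection at ambient temperature) reporting beta-arrestin binding to GPR32 in engineered CHO-K1 cells. Compound treatment lasted 90 min at 37 C, normalized to a DMSO basal control.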
`CCCN1C(=O)C2(c3ccccc31)c1c(oc3cc(C)c(C)cc3c1=O)C(=O)N2CCCOC` (configuration not stated) was tested, and the activation was inactive: 12.2%.
For `COc1cccc(CNC(=O)CCc2c(C)nn(-c3ccc(N4CCOCC4)nn3)c2C)c1`, the activation was inactive: 5.49%.
With `COc1ccc(OC)c(NC(=O)[C@H](Cc2ccccc2)N2Cc3ccccc3C2=O)c1` the activation was inactive: -14%.
In the case of `O=C(CC1C(=O)N(c2ccccc2)C(=O)N1CCc1cccs1)Nc1ccc(Cl)cc1` (configuration not stated), the activation was inactive: -1.39%.
With `Cc1c(C(=O)Nc2cccc(C(F)(F)F)c2)oc2ccc(S(=O)(=O)N(C)C3CCCCC3)cc12` the activation was inactive: -5.34%.
In the case of `CCNC(=O)c1ccc(-n2c(-c3ccccc3)cc3c2CCCCC3)cc1`, the activation was inactive: -18.8%.
With `CCOC(=O)CNc1ncnc2c1nnn2C` the activation was inactive: -12.4%.
In the case of `CC(=O)Nc1nonc1-c1nnc(SCc2ccc(C)cc2)n1C`, the activation was inactive: -23.7%.
For `Cc1cccn2c(=O)c(/C=C(\C#N)c3nc4ccccc4n3C)c(Oc3ccc(Cl)cc3)nc12`, the activation was inactive: -30.2%.
With `CCCc1cc(=O)[nH]c2nnc(SCC(=O)Nc3cccc(C)c3)n12` the activation was inactive: 2.45%.
For `CCCNC(=O)c1c2c(nc3ccccc13)C(=O)N(C1CCCCC1)C2`, the activation was inactive: 7.26%.
With `COc1cccc(-c2cc(C(=O)Nc3ccc(F)cc3)[nH]n2)c1` the activation was inactive: 38.4%.
For `CC(C)(O)c1ccccc1CC[C@@H](SCC1(CC(=O)O)CC1)c1cccc(/C=C/c2ccc3ccc(Cl)cc3n2)c1`, the activation was inactive: 30.4%.
`Cc1cc(OCC(=O)Nc2ncn[nH]2)c(C)c(C)c1Br` was tested, and the activation was inactive: 24.6%.
For `Cc1cc(C)cc(N2C(=O)CS(=O)(=O)C23C(=O)N(Cc2ccccc2)c2ccccc23)c1` (configuration not stated), the activation was inactive: -5.36%.
In the case of `CCc1cc(=O)[nH]c(SCc2nc(-c3ccccc3C)no2)n1`, the activation was inactive: 28%.
With `CCOC(=O)C1CCN(c2ncnc3c2c(-c2ccccc2)cn3-c2ccc(C)c(Cl)c2)CC1` the activation was inactive: -6.24%.
With `COc1ccc(-c2cc(C(F)(F)F)nc(SCC(=O)Nc3ccc(C(C)=O)cc3)n2)cc1` the activation was inactive: -13.5%.
With `COc1nnc(-c2ccc(N3CCCCC3)c(NC(=O)c3ccc(Cl)cc3)c2)c2ccccc12` the activation was inactive: 6.4%.
For `O=C(NCCc1csc(-c2ccc(F)cc2)n1)C(=O)Nc1ccc(Cl)cc1`, the activation was inactive: -3.29%.
In the case of `O=C1NC(=O)C(c2ccccc2)(c2ccccc2)N1`, the activation was inactive: -5.76% and inactive: -11.9% and inactive: 6.67%.
In the case of `COc1ccc(OC)c(NC(=O)c2nc(SCc3ccc(F)cc3)ncc2Cl)c1`, the activation was inactive: -2.43%.
For `CCC(=O)N1c2ccc(S(=O)(=O)NCCc3ccccc3)cc2CC1C` (configuration not stated), the activation was inactive: 42.6%.
In the case of `O=C(/C=C/c1cn(CC(O)CN2CCc3ccccc32)c2ccccc12)c1ccc(Br)cc1` (configuration not stated), the activation was inactive: 1.57%.
`COC(=O)c1ccccc1NC(=O)N(Cc1ccc(C)cc1)Cc1cccn1-c1nnc(N2CCCC2=O)s1` was tested, and the activation was inactive: -5.55%.
In the case of `COc1ccc(C)cc1NC(=O)C1CCN(S(=O)(=O)c2cccc3nonc23)CC1`, the activation was inactive: -1.24%.
With `Cc1ccc(CNS(=O)(=O)c2c(C(=O)N3CCC(C)CC3)c(C)n(C)c2C)cc1` the activation was inactive: -21.1%.
In the case of `CCOC(=O)c1[nH]c(C)c(CCC(=O)NCc2ccc(OC(C)C)cc2)c1C`, the activation was inactive: -20.8%.
`Cc1sc2ncn(CC(=O)Nc3ccc(C(F)(F)F)cc3)c(=O)c2c1S(=O)(=O)N1CCN(C)CC1` was tested, and the activation was inactive: -5.03%.
For `Cc1cc(Nc2cccc(O)c2)c2cccc(Br)c2n1`, the activation was active: 119%.
With `CCc1ccc(S(=O)(=O)c2cn(CC(=O)Nc3cccc(C)c3)c3ccc(Cl)cc3c2=O)cc1` the activation was inactive: 45.1%.
With `Cc1cccc(NC(=O)CSc2nnc3c4ccccc4n(C)c3n2)c1` the activation was inactive: 24.2%.
With `O=C(CCn1cnnn1)Nc1ccccc1` the activation was inactive: 0.616%.
In the case of `O=C(CSc1nc2c([nH]c3ccccc32)c(=O)n1-c1ccccc1)Nc1ccccc1F`, the activation was inactive: -54%.
For `Cc1ccc(-c2c(C)n3c4c(=O)n(C)c(=O)n(C)c4nc3n2CCCO)cc1`, the activation was active: 60.3%.
In the case of `CCOc1ccc(NC(=O)C2CCCN(S(=O)(=O)c3ccc(Br)s3)C2)cc1` (configuration not stated), the activation was inactive: -2.89%.
`CCOC(=O)c1ccccc1NC(=O)Cn1c(=O)n(Cc2ccc(C(=O)NCc3ccc4c(c3)OCO4)cc2)c(=O)c2ccccc21` was tested, and the activation was inactive: 19.9%.
With `COc1ccc(C(=O)Nc2cccc(-c3nc4cccnc4s3)c2C)c(OC)c1` the activation was inactive: 0.363%.
`CC(=O)N1c2c(cc(Br)cc2S(=O)(=O)Nc2ccccc2C)CC1C` (configuration not stated) was tested, and the activation was inactive: 0.628%.
In the case of `Cc1cccc(C(=O)NC(=O)Nc2ccc(-n3nc(C(F)(F)F)cc3C(F)(F)F)cc2)c1`, the activation was inactive: 0.225%.
With `CC(=O)N1CCCc2cc(S(=O)(=O)N3CCC(N(C)C(C)C)CC3)ccc21` the activation was inactive: -3.8%.
For `Cc1c2cnn(CC(=O)NCc3ccc(F)cc3)c(=O)c2c(C)n1Cc1ccccc1Cl`, the activation was inactive: -5.37%.
For `COc1cccc(Cn2cnc3c2c(=O)n(C)c(=O)n3C)c1`, the activation was inactive: 22.3%.
With `CCOc1cc(Br)c(C2C(C(=O)OC)=C(C)NC3=C2C(=O)c2ccccc23)cc1OCC` (configuration not stated) the activation was inactive: -42.5%.
With `COCCCNC(=O)C1CCN(c2ncnc3c2nc2n3CCCCC2)CC1` the activation was inactive: -11.7%.
With `O=C(Nc1cccc(C(F)(F)F)c1)c1ccc(F)c(S(=O)(=O)N2CCc3ccccc3C2)c1` the activation was inactive: -9.56%.
In the case of `COc1ccc2c(c1)c1c(c(=O)n(-c3ccc(C)cc3)c(=O)n1CC(=O)Nc1cc(C)ccc1C)n2C`, the activation was inactive: -8.36%.
With `Cc1nc2c(C(=O)NCCC(C)C)cnn2c(C)c1Cc1c(F)cccc1Cl` the activation was inactive: -11%.
In the case of `CCC(C)NC(=O)C1CCN(S(=O)(=O)c2ccc3c(ccn3CC)c2)CC1` (configuration not stated), the activation was inactive: 2.64%.
With `O=C(O)c1ccccc1NC(=O)N1c2ccccc2Sc2ccccc21` the activation was inactive: 19.9%.
In the case of `COc1ccccc1CNC(=O)c1cc2cc(S(=O)(=O)N3CCCCC3)ccc2n1C`, the activation was inactive: 0.513%.
In the case of `CCOC(=O)C1CCCN(C(=O)C2CCN(S(=O)(=O)c3c(C)noc3/C=C/c3ccc(C)cc3)CC2)C1` (configuration not stated), the activation was inactive: 10.1%.
